# Measured values as given in patent US12296012 (Pfizer, dated 2025).
# B1: P4F6 (scFv format) (scFv, not shown: a dimerising Fc or GST; small tags and cut ends)
# scFv: QVQLVQSGAEVKKPGSSVKVSCKASGGTFGSYGISWVRQAPGQGLEWMGGIIPIFGTVTYAQKFQGRVTITADESTRTAYMELSSLRSEDTAVYYCARDSWSGATGASDTWGQGTLVTVSSGGGGSGGGGSGGGGS[not shown - about 100 residues]RTFGQGTKVEIK
# Target: T1, human FLT3 (human, UniProt P36888 27-541, limits assumed)
# T1 construct: Soluble analyte hFLT3 in SPR; also called hFLT3; huFlt3
# T1 sequence: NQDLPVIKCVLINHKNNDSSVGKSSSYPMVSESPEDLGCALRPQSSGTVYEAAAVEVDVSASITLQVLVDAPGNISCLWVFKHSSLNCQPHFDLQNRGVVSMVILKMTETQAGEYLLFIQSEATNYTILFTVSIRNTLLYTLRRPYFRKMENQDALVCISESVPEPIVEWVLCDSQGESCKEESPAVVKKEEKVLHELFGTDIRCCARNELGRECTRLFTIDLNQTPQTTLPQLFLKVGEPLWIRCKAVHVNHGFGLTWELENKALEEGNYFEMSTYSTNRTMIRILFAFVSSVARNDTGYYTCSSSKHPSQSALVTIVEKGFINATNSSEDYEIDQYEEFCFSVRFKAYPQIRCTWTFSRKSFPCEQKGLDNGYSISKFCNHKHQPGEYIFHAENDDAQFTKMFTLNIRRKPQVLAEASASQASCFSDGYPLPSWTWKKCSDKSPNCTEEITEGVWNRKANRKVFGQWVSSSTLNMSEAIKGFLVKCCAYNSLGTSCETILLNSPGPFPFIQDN
# Experiment: SPR Biacore T200, 37C; scFv format
binder,measurement,value
B1,Kd,15.1 nM
same,koff,0.00199 s⁻¹
same,t1/2,5.8 min
